From US20110218157A1

How the values were obtained:
[1] = molecular target: inactivated DENV2 virons (strain 16681; Microbix Corp.) (Dengue virus 2, strain 16681) (UniProt P29990); assay: reverse ELISA: PAP-IC on DENV2 (16681) viron-coated plate, sample 1
[2] = molecular target: inactivated DENV2 virons (strain 16681; Microbix Corp.) (Dengue virus 2, strain 16681) (UniProt P29990); assay: reverse ELISA: PAP-IC on DENV2 (16681) viron-coated plate, sample 2
[3] = molecular target: inactivated DENV2 virons (strain 16681; Microbix Corp.) (Dengue virus 2, strain 16681) (UniProt P29990); assay: reverse ELISA: PAP-IC on DENV2 (16681) viron-coated plate, sample 3
[4] = molecular target: inactivated DENV2 virons (strain 16681; Microbix Corp.) (Dengue virus 2, strain 16681) (UniProt P29990); assay: reverse ELISA: PAP-IC on DENV2 (16681) viron-coated plate, sample 4
[5] = molecular target: inactivated DENV2 virons (strain 16681; Microbix Corp.) (Dengue virus 2, strain 16681) (UniProt P29990); assay: reverse ELISA: PAP-IC on DENV2 (16681) viron-coated plate, average of 4

Question: Which results are given for “peroxidase-rabbit anti-peroxidase IgG immune complex (PAP complex) (from UniProt P00433 31-338)”?
Answer: OD405 nm [1]: 3.11 OD405 nm; OD405 nm [2]: 3.09 OD405 nm; OD405 nm [3]: 3.05 OD405 nm; OD405 nm [4]: 3.08 OD405 nm; OD405 nm (average) [5]: 3.08 OD405 nm
